From PubChem BioAssay AID1347165 (National Center for Advancing Translational Sciences (NCATS), 2019)
About 5,700 (2.6%) of roughly 220,000 compounds were called active. The inconclusive results got no clear call from the source; some entries with a clear call stand among them for comparison. The call rests on the fitted dose curve; in most records, active means well fitted inhibition curve with a large enough effect; inconclusive means small, poorly fitted or top-dose-only effect; inactive means no such curve, though single readings can be large or run the other way. Where the call is inconclusive, the potency comes from a doubtful curve fit.

Target: Lysine-specific demethylase 5B (Homo sapiens) (UniProt Q9UGL1)
Test: Primary screen for KDM5B Histone Demethylases FDH-coupled qHTS; further: nearly all actives have a fitted effect of over 70% in size; on activity change, negative = inhibition: 0% is about no effect
Conditions: FDH-coupled NADH fluorescence (FDH is formaldehyde dehydrogenase); activity change, negative = inhibition: at 57.7 µM (top of the series) unless noted
Summary of the method: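 KDM5BΔAP (200 nM final) in 50 mM HEPES pH 7.5, 0.01% Tween-20 was preincubated 10 min at RT with compound over a concentration range. Substrate mix (H3K4me3 12.5 µM, α-KG 25 µM, Fe²⁺, ascorbate, NAD⁺, FDH) was added, and NADH fluorescence change over 30 min gave dose-response curves.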
Potency means the concentration at half of the fitted maximal effect; tags describe the fitted curve by direction and shape.

UniProt Q9UGL1, sequence (Q9UGL1 whole entry, looked up): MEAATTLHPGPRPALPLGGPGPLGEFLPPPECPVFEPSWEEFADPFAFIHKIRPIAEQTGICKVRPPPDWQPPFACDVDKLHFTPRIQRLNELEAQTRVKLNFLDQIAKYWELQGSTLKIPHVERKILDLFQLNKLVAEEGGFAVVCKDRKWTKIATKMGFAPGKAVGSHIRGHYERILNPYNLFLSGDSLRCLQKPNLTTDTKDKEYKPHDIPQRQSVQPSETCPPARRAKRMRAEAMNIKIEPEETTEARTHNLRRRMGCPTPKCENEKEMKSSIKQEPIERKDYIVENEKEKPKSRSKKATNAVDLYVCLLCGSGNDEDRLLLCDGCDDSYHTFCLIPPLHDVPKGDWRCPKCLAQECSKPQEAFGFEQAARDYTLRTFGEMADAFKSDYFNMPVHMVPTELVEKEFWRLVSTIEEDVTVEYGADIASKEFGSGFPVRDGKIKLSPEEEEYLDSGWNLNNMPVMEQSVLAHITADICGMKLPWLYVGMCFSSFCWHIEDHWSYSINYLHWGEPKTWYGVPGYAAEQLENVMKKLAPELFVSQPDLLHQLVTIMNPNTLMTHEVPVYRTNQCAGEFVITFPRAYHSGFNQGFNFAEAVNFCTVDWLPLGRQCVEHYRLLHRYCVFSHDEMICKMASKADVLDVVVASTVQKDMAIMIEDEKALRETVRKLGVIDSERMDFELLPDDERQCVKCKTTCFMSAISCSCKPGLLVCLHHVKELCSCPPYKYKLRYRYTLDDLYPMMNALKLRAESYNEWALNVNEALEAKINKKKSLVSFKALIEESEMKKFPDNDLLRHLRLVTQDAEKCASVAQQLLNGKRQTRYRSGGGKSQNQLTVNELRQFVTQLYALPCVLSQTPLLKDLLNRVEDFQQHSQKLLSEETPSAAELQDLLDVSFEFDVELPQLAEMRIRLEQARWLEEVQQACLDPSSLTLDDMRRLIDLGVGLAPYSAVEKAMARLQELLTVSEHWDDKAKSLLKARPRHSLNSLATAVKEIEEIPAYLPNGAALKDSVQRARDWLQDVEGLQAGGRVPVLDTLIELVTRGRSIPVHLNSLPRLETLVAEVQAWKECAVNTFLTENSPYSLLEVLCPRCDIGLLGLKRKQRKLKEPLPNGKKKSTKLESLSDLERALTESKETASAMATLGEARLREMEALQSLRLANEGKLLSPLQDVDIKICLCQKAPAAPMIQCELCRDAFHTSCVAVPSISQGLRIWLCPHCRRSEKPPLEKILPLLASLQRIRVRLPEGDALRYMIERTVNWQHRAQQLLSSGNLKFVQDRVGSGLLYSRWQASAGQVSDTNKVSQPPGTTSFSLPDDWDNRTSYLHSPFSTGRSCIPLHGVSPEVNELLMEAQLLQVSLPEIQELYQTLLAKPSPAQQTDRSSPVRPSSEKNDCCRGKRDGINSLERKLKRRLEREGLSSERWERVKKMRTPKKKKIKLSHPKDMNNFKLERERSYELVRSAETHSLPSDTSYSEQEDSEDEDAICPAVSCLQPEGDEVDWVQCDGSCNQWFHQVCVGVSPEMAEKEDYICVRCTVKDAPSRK

**Q.** Cc1cccc(CN2C(=O)N(c3ccc(C(C)C)cc3)S(=O)(=O)c3ccccc32)c1 was tested. Which Potency did it give?
**A.** Its Potency is “inactive”.

**Q.** O=C(NCCc1cnc[nH]1)c1ccc(-c2ncc3cnc(-c4cccc(F)c4)cn23)cc1 was tested. Which Potency did it give?
**A.** The Potency was inconclusive: 39.8 µM [inhibitor, partial curve, poor fit].

**Q.** How did the Potency turn out when Cc1ccc(-c2ccc(=O)n(CC(=O)Nc3ccc(C)cc3Cl)n2)cc1 was run?
**A.** Its Potency is inconclusive: 25.1 µM [inhibitor, single point].

**Q.** Which Potency does the source give for CCn1c(C2CCN(C(=O)[C@@H](N)Cc3cnc[nH]3)CC2)nn(C)c1=O here?
**A.** The Potency was “inactive”.

**Q.** Which Potency does the source give for CCOC(CCNC(=O)c1cn(CC(C)C)c(=O)c2c1c1ccccc1n2C)OCC here?
**A.** Its Potency is inconclusive: 14.1 µM [inhibitor, partial curve, poor fit].

**Q.** Which Potency does the source give for CC1SC2(NC1=O)C1CC3CC2CC(O)(C3)C1 (stereo not given) here?
**A.** Its Potency is “inactive”.

**Q.** With O=C(Nc1c(C(=O)N2CCN(c3ccccc3)CC2)oc2ccccc12)c1ccc(Br)o1 as the compound, how does the Potency read?
**A.** Its Potency is inconclusive: 31.6 µM [inhibitor, single point].

**Q.** For O=C(NCc1cccs1)c1ccc(Cn2c(SCc3ccccc3)nc3cccnc32)cc1, which Potency is on record?
**A.** The Potency was inconclusive: 35.5 µM [inhibitor, partial curve, poor fit].

**Q.** CN(Cc1ccccc1)C(=O)[C@@H]1Cc2nc[nH]c2CN1C was tested. Which Potency did it give?
**A.** The Potency was “inactive”.

**Q.** Which Potency does the source give for CCn1c(C)cc(C(=O)COc2ccc3ccc(=O)oc3c2)c1C here?
**A.** The Potency was inconclusive: 39.8 µM [inhibitor, single point].

**Q.** For COC(=O)c1c(NC(C)=O)c2cc(NC(C)CC(C)(C)O)cnc2n1CCC(C)C (stereo not given), which Potency is on record?
**A.** The Potency was active: 20 µM.

**Q.** With O=C(c1cccs1)N1CCC(O)(c2ccccc2)[C@H](N2CCCC2)C1 (stereo not given in full) as the compound, how does the Potency read?
**A.** The Potency was inconclusive: 7.94 µM [inhibitor, partial curve].

**Q.** With Cn1nc(C2CCNC2)c2c(C(=O)NCc3ccncc3)cc(C3CC3)nc21 (stereo not given) as the compound, how does the Potency read?
**A.** Its Potency is inconclusive: 56.2 µM [inhibitor, partial curve, poor fit].

**Q.** For CCOC(=O)c1ccc(-n2c(CCC(=O)O)ccc2-c2ccc(Br)cc2)cc1, which Potency is on record?
**A.** The Potency was inconclusive: 15.8 µM [inhibitor, partial curve, poor fit].

**Q.** COC(=O)c1ccc2nc(C[C@@H]3C[C@@H](C(C)C)[C@H](CN(C)C)C=C3C)[nH]c2c1 was tested. Which Potency did it give?
**A.** Its Potency is “inactive”.

**Q.** CCCNC(=O)CCc1c(C)nc2c(c(C)nn2-c2ccccc2)c1C was tested. Which Potency did it give?
**A.** The Potency was inconclusive: 35.5 µM [inhibitor, partial curve, poor fit].

**Q.** Which Potency does the source give for CNC(=O)c1ccc(CN2CC3(CCN(C(C)=O)CC3)CC2C(=O)O)o1 (stereo not given) here?
**A.** The Potency was inconclusive: 22.4 µM [inhibitor, partial curve, poor fit].

**Q.** With CC(C)Cc1nc(OCC(=O)N2CCCCC2)c(C#N)c2c1CCCC2 as the compound, how does the Potency read?
**A.** The Potency was “inactive”.

**Q.** Which Potency does the source give for Cc1sc2nc(NCCO)n3nc(-c4ccco4)nc3c2c1C here?
**A.** Its Potency is inconclusive: 39.8 µM [inhibitor, partial curve, poor fit].

**Q.** With COc1cccc(CNCCSc2nnnn2C)c1OCc1ccccc1Cl as the compound, how does the Potency read?
**A.** The Potency was inconclusive: 2.82 µM [inhibitor, full curve, poor fit].

**Q.** For CCCS(=O)(=O)N1CC[C@H](c2nc(C)no2)[C@H](NC(=O)COC)C1, which Potency is on record?
**A.** Its Potency is “inactive”.

**Q.** Cc1nc(-c2ccc(S(=O)(=O)Nc3cccc(F)c3)cc2)co1 was tested. Which Potency did it give?
**A.** Its Potency is “inactive”.

**Q.** How did the Potency turn out when O=C(NCc1ccc2c(c1)OCO2)c1noc(-c2ccc(F)cc2)n1 was run?
**A.** The Potency was “inactive”.

**Q.** CC(C)CNc1nc2ccccc2nc1S(=O)(=O)Cc1ccc(Cl)cc1 was tested. Which Potency did it give?
**A.** The Potency was inconclusive: 31.6 µM [inhibitor, single point].

**Q.** Which Potency does the source give for CCc1ccc(NCc2cc3ccc(OC)cc3n(CC(=O)Nc3ccc(F)cc3F)c2=O)cc1 here?
**A.** Its Potency is inconclusive: 3.16 µM [inhibitor, full curve, poor fit].

**Q.** CC(C)c1ccc(C(O)P(=O)(OCc2ccccc2)c2ccc(N(C)C)cc2)cc1 (stereo not given) was tested. Which Potency did it give?
**A.** The Potency was inconclusive: 39.8 µM [inhibitor, partial curve, poor fit].

**Q.** Which Potency does the source give for COc1ccccc1Nc1ncc2c(n1)CN([S+](=O)([O-])c1ccccc1)CCN2 here?
**A.** Its Potency is inconclusive: 44.7 µM [inhibitor, partial curve, poor fit].

**Q.** With O=S(=O)(Cc1ccccc1F)N1CCCC(Cc2noc(-c3cnccn3)n2)C1 (stereo not given) as the compound, how does the Potency read?
**A.** The Potency was inconclusive: 39.8 µM [inhibitor, single point].

**Q.** With CNC(=O)c1c(NC(=O)c2nn(-c3ccc(Cl)cc3)ccc2=O)sc2c1CCCC2 as the compound, how does the Potency read?
**A.** Its Potency is “inactive”.

**Q.** With Cc1oc2c(c1C(=O)N1CCSCC1)CN(Cc1cccc(F)c1)CC2 as the compound, how does the Potency read?
**A.** The Potency was inconclusive: 31.6 µM [inhibitor, single point].

**Q.** For CCNC(=O)C(C)Sc1nc(-c2ccco2)nc2ccccc12 (stereo not given), which Potency is on record?
**A.** The Potency was inconclusive: 1.78 µM [inhibitor, full curve, poor fit].

**Q.** With COc1ccc(C(=O)N2CCCC3(C2)Nc2cccnc2NC3=NCc2ccccc2)cn1 (stereo not given) as the compound, how does the Potency read?
**A.** The Potency was inconclusive: 28.2 µM [inhibitor, partial curve, poor fit].

**Q.** How did the Potency turn out when CSc1ccc(/C=C/C(=O)OCC(=O)NCC2CCCO2)cc1 (stereo not given) was run?
**A.** Its Potency is inconclusive: 31.6 µM [inhibitor, partial curve, poor fit].

**Q.** With COc1ccc2nc3oc(C(=O)N4CCN(c5cc(C)ccc5C)CC4)cc3cc2c1 as the compound, how does the Potency read?
**A.** Its Potency is inconclusive: 1 µM [inhibitor, full curve, poor fit].

**Q.** How did the Potency turn out when CN1CCN(Cc2ccc(CNCc3ccc(C#N)cc3)cc2)CC1 was run?
**A.** The Potency was “inactive”.

**Q.** With COc1ccc(C(c2c(N)[nH]c(=S)[nH]c2=O)c2c(N)[nH]c(=S)[nH]c2=O)cc1 as the compound, how does the Potency read?
**A.** Its Potency is inconclusive: 20 µM [inhibitor, partial curve, poor fit].

**Q.** How did the Potency turn out when O=C(Nc1ccc(Br)cc1F)c1ccc2nc(N3CCOCC3)sc2c1 was run?
**A.** Its Potency is “inactive”.

**Q.** CC(C)Oc1ccc(CNC(=O)CCCN2C(=O)CCn3nc(-c4cccn4C)cc32)cc1 was tested. Which Potency did it give?
**A.** Its Potency is inconclusive: 14.1 µM [inhibitor, partial curve, poor fit].

**Q.** COc1ccc(-n2c(=O)[nH]c3cccnc32)cc1 was tested. Which Potency did it give?
**A.** The Potency was inconclusive: 31.6 µM [inhibitor, single point].

**Q.** Which Potency does the source give for Cc1ncoc1C(=O)N1CCCC(c2nnnn2C)C1 (stereo not given) here?
**A.** Its Potency is inconclusive: 20 µM [inhibitor, partial curve].

**Q.** Which Potency does the source give for CCN(CC(=O)Nc1ccccc1OC)C(=O)c1ccc(-c2cc(Cl)ccc2Cl)o1 here?
**A.** Its Potency is inconclusive: 39.8 µM [inhibitor, single point].

**Q.** With Cc1cc(OS(C)(=O)=O)cc2c1C(=O)/C(=C/c1ccccc1F)O2 as the compound, how does the Potency read?
**A.** Its Potency is “inactive”.

**Q.** With Cc1ccccc1N1CCN(C2CCCN(Cc3ccc(C#CC(C)(C)O)cc3)C2)CC1 (stereo not given) as the compound, how does the Potency read?
**A.** Its Potency is inconclusive: 31.6 µM [inhibitor, partial curve, poor fit].

**Q.** How did the Potency turn out when O=Cc1ccc(OCCOc2ccc([N+](=O)[O-])cc2)cc1 was run?
**A.** The Potency was inconclusive: 20 µM [inhibitor, partial curve, poor fit].

**Q.** Which Potency does the source give for C[C@]1(CO)[C@H]2Cc3sc(NC(=O)c4ccc(F)cc4)nc3[C@@H](CC(=O)Nc3ccccc3)[C@]2(C)CC[C@H]1O here?
**A.** Its Potency is active: 31.6 µM.

**Q.** How did the Potency turn out when COCc1cc(=O)n(CC(=O)Nc2cc(OC)c(OC)c(OC)c2)c(N2CCOCC2)n1 was run?
**A.** Its Potency is inconclusive: 22.4 µM [inhibitor, single point].

**Q.** With CN(Cc1ccccc1)C(=O)Cn1c(=O)n(C)c2ccccc21 as the compound, how does the Potency read?
**A.** Its Potency is “inactive”.

**Q.** How did the Potency turn out when CC(=O)N1CCN(c2nc(-c3c(C)noc3C)cc3cc(CN(C)C)oc23)CC1 was run?
**A.** Its Potency is inconclusive: 39.8 µM [inhibitor, single point].

**Q.** How did the Potency turn out when COC(=O)CSc1ncc2c(n1)-c1ccccc1N(Cc1ccccc1C)S2(=O)=O was run?
**A.** Its Potency is inconclusive: 3.55 µM [inhibitor, partial curve, poor fit].

**Q.** For CCNc1c(NC(=O)Cc2ccccc2)c(=O)oc2ccccc12, which Potency is on record?
**A.** The Potency was “inactive”.

**Q.** For O=C(Cc1ccc(OC(F)(F)F)cc1)N1CC(CNc2cccnc2)C2(C1)CN(c1ccccc1)C2 (stereo not given), which Potency is on record?
**A.** Its Potency is inconclusive: 25.1 µM [inhibitor, single point].

**Q.** Which Potency does the source give for CC(C)C(=O)N(Cc1ccc(-c2cccc(Cl)c2)o1)C1CCS(=O)(=O)C1 (stereo not given) here?
**A.** Its Potency is “inactive”.

**Q.** With Cc1nccn1CCNC(=O)CCC[C@@H]1[C@H]2CCCN3CCC[C@@H](CN1Cc1ccccc1)[C@@H]23 as the compound, how does the Potency read?
**A.** The Potency was inconclusive: 25.1 µM [inhibitor, partial curve].

**Q.** How did the Potency turn out when Cc1ccc(-c2nc(-c3cc4c([nH]c3=O)CC(C)(C)CC4=O)sc2C)cc1 was run?
**A.** Its Potency is inconclusive: 31.6 µM [inhibitor, single point].

**Q.** For CCCCSc1nc(-c2ccc(OC)cc2)ccc1C#N, which Potency is on record?
**A.** The Potency was inconclusive: 2.24 µM [inhibitor, partial curve, poor fit].

**Q.** How did the Potency turn out when COC(=O)c1ccccc1NC(=O)Cn1c(CCC(=O)O)ccc1-c1cccs1 was run?
**A.** Its Potency is inconclusive: 25.1 µM [inhibitor, single point].

**Q.** Which Potency does the source give for CCOc1cccc(CN2CCC3(CC2)CN(C)CC3COC)c1 (stereo not given) here?
**A.** Its Potency is active: 14.1 µM.

**Q.** Which Potency does the source give for CC1(C)OC2OC(C(=O)Oc3ccc(Cl)cc3)C3OC(C)(C)OC3C2O1 (stereo not given) here?
**A.** The Potency was “inactive”.

**Q.** How did the Potency turn out when O=C(Cn1cc(SCc2ccc(C(F)(F)F)cc2)c2ccccc21)N1CCOCC1 was run?
**A.** The Potency was inconclusive: 31.6 µM [inhibitor, single point].

**Q.** How did the Potency turn out when CC(C1CC1)N(C)CC(=O)NC(C)(C#N)C(C)C (stereo not given) was run?
**A.** The Potency was “inactive”.

**Q.** Nc1nccnc1C(=O)NCc1cn2ccccc2n1 was tested. Which Potency did it give?
**A.** Its Potency is inconclusive: 25.1 µM [inhibitor, partial curve, poor fit].

**Q.** For COc1ccccc1CNS(=O)(=O)c1ccc2c(c1)NC(=O)C(C)C(=O)N2 (stereo not given), which activity change, negative = inhibition is on record?
**A.** The activity change, negative = inhibition was inconclusive: -35% [inhibitor].

**Q.** How did the Potency turn out when COc1ccc(-c2cc3ccc(OC(=O)N4CCOCC4)cc3oc2=O)cc1 was run?
**A.** Its Potency is inconclusive: 1.78 µM [inhibitor, partial curve, poor fit].

**Q.** For O=C(CCC1CCN(Cc2cc3ccccc3o2)CC1)NC1CCN(Cc2ccccc2)C1 (stereo not given), which Potency is on record?
**A.** Its Potency is inconclusive: 31.6 µM [inhibitor, partial curve, poor fit].

**Q.** Which Potency does the source give for COc1ccnc(-c2nnc3ccc(N(C)CCN(C)C)nn23)c1 here?
**A.** The Potency was inconclusive: 28.2 µM [inhibitor, single point].
